The campaign covered roughly 150,000 compounds. About 540 (0.36%) showed an effect of 50% or more. This is one part of the list.

The subject of this test is Plasmodium falciparum. Kind of test: Primary screen in NF54 nanoGlo assay, in single point, at 2uM, 72h; a lower Z score goes with more inhibition. Format: functional, Erythrocyte. The conditions noted are these: timepoint 72 hour.
By % Inhibition is commonly meant the relative decrease from the control value, in per cent. Turning to `COc1cccc(N2CCN(C(=O)c3cn4cc(-c5cccc(Cl)c5)ccc4n3)CC2)c1`, the “% Inhibition” value is reported as -8% and the Z score is 1.19.
For `Cn1[nH]c2ncc(Br)cc2c1=O` the same measures were -5% and 0.99.
As to `Cc1nn(C)c2nc(N3CCC[C@H](C#N)C3)sc12`, the “% Inhibition” value is reported as -7% and the Z score is given as 0.74.
For `NC(=NCc1csc2ccccc12)N1CCN(c2nccs2)CC1` the same measures were 5% and -0.56.
In the case of `CC(C)(C)CN1C[C@@H](NS(=O)(=O)c2cccs2)CC1=O`, the “% Inhibition” value is -22% and the Z score is 2.06.
For `Cc1nccc(N2CCOCC3(CC3)C2)c1Cl` the same measures were -8% and 1.56.
For `Cc1cc(S(=O)(=O)c2ccc3ccccc3c2)n2nc(C)nc2n1` the same measures were 35% and -3.96.
For `COCCc1noc(CCc2nc(-c3ccccc3)no2)n1` the same measures were -4% and 0.76.
On to `O=C1COc2ccc(S(=O)(=O)Oc3ccccc3F)cc2N1`, for which the “% Inhibition” value was found to be 6% and the Z score was -1.07.
Regarding `CC[C@H](C)Oc1cc(CNc2nccnc2C#N)ccn1`, the “% Inhibition” value came out at 7% and the Z score is recorded as -0.64.
For `CCc1nc(C)c(-c2c(-c3ccccc3)ncn2Cc2cnc(C)cn2)[nH]1` the same measures were 1% and -0.09.
As for `COc1cccc(C(=O)N2CCN(C)[C@@H]3CS(=O)(=O)C[C@@H]32)c1O`, the “% Inhibition” value came to 1% and the Z score is recorded as -0.08.
Take `COc1ccc(C(=O)N[C@@H]2CN(C(=O)NC(C)C)CCC[C@H]2O)cc1`: the “% Inhibition” value turned out to be 15% and the Z score is given as -2.32.
In the case of `O=C(O)c1cnc(N2CCC(Cc3ccccc3)CC2)c(NS(=O)(=O)c2ccc(F)c(F)c2)c1`, the “% Inhibition” value was determined as 4% and the Z score is on record as -0.34.
For `CN1CCCCC[C@H]1C(=O)N1CCN(c2ccc(OCc3ccccc3)cc2)CC1` the same measures were -7% and 1.28.
The corresponding values for `CC(=O)N1CCc2cc(S(=O)(=O)N3CCC(CC(=O)N4CCCCCC4)CC3)ccc21` are -20% and 1.84.
For `CC(C)n1cc(CNCC2CCC3(CC2)OCCO3)cn1` the same measures were -9% and 1.17.
With `Cc1cnn(C)c1CN1CCc2ccccc2C1(C)C`, the “% Inhibition” value is listed as -10% and the Z score was found to be 1.14.
For `CCn1nc(C)cc1C(=O)N1CC[C@@]2(CCCN(CCC3CCCCC3)C2)C1` the same measures were 1% and -0.16.
The corresponding values for `O=S(=O)(CC12CCC(CC1)C2)N1CCc2c(ncn2-c2ccccc2)C1` are -14% and 1.53.
As for `COC[C@](C)(CCO)Nc1ncnc2c(C)cccc12`, the “% Inhibition” value amounted to 29% and the Z score is -3.32.
For `C[C@]1(c2ccccc2)CCC(=O)N(CCCNc2cccnc2)C1` the same measures were -16% and 1.99.
For `Cc1n[nH]c(CN(C)Cc2noc(C(C)C)n2)c1Cl` the same measures were -16% and 1.54.
Turning to `O=C(NCCc1ccccc1)N1C[C@@H]2C[C@H](NS(=O)(=O)c3cccs3)[C@H]1C2`, the “% Inhibition” value came out at 35% and the Z score is on record as -3.98.
Consider `O=C([C@@H]1CCCO1)N1CCC(c2cnn(-c3cccc(F)c3)c2)CC1`, for which the “% Inhibition” value is on record as -10% and the Z score turned out to be 1.25.
The corresponding values for `COc1cccc(CCC(=O)N2CCNC(=O)[C@@H]2c2ccccc2Cl)c1F` are -11% and 1.28.
For `CC(C)(C)CCS(=O)(=O)NC[C@H]1CCN(C2CC2)C1` the same measures were -10% and 1.18.
The corresponding values for `Cc1ccccc1CNC(=O)CN1CC[C@](C)(O)[C@H](O)C1` are -12% and 1.51.
As to `CC(C)N(C)S(=O)(=O)NCCc1csc(N2CCCC2)n1`, the “% Inhibition” value is reported as -5% and the Z score is 0.51.
For `CCc1nc(C(C)NC(C)C(=O)N(C)C)cs1` (stereo not drawn) the same measures were 6% and -0.74.
For `COC1(C(F)(F)F)CN(C(=O)Nc2ncn(C(C)(C)C)n2)C1` the same measures were 2% and -0.26.
The corresponding values for `CCOC(=O)[C@H]1CCCN(C2CC(OCC)C2)C1` (stereo partly drawn) are -2% and 0.19.
In the case of `CN(Cc1cccnc1)C(=O)N[C@H]1CCC[C@H]1F`, the “% Inhibition” value is listed as -5% and the Z score came to 1.03.
For `CN(C)C(=O)[C@@]12CN(CC3CCCCC3)C[C@@H]1CN(C(=O)c1ccccc1)C2` the same measures were -7% and 0.97.
The corresponding values for `CC(C)[C@H](N)C(=O)N1CCN(CC2CCCC2)C(=O)C1` are -10% and 1.03.
The corresponding values for `CC(C)CN(CC1CN(Cc2ccc(Cl)cc2)CC1c1ccccc1)C(=O)c1ccccc1F` (stereo not drawn) are -5% and 0.97.
`CCO[C@@H](C)c1ncc(C(=O)NCCn2cnnn2)s1`: the “% Inhibition” value is listed as -1% and the Z score turned out to be 0.17.
The corresponding values for `Cc1cc(CN2CCC[C@@H]2CF)n(C)n1` are 4% and -0.44.
In the case of `C[C@@]1(C(=O)NCCN2CCOCC2)COCc2nnc(-c3ccccc3)n21`, the “% Inhibition” value was -7% and the Z score came out at 0.82.
`CC(C)(C)c1cc(C(=O)N2CCOCC2(C)C)[nH]n1`: the “% Inhibition” value was -5% and the Z score is 0.72.
The corresponding values for `CN(C)CCN1C(=O)C[C@](CC(=O)N(C)Cc2nc3ccc(F)cc3[nH]2)(c2ccccc2F)C1=O` are -1% and 0.22.
`CCc1cccc(C(=O)NCCc2cncn2C)n1`: the “% Inhibition” value is reported as -7% and the Z score is given as 0.95.
The corresponding values for `CCCS(=O)(=O)N1CC(=O)N(c2cccc(OC)c2)[C@](C)(C(=O)NC2CCCCCCC2)C1` are -5% and 0.68.
For `Cc1ccc2[nH]c(=O)cc(C(=O)N3CCC[C@@]4(CCN(C)C4)C3)c2c1` the same measures were -8% and 1.22.
As to `Cc1cc(C)cc(NC(=O)C2CCN(c3cc(-c4cccc(C)c4)ncn3)CC2)c1`, the “% Inhibition” value is -1% and the Z score came out at 0.07.
The corresponding values for `O=C1CCOCCN1Cc1cc(F)ccc1Cl` are 6% and -1.23.
For `NC(=O)Nc1cc(Cl)cc(Cl)c1` the same measures were 3% and -0.31.
Regarding `COc1cccc([C@H]2CC(O)=Nc3nc(N)sc32)c1OCc1cccc(F)c1`, the “% Inhibition” value was -10% and the Z score was found to be 1.23.
The corresponding values for `COc1ccccc1CCc1nc(-c2cccnc2)n[nH]1` are 5% and -0.92.
Turning to `CC(=O)N1CC2(CCN(CCOc3ccc(C)cc3C)CC2)C[C@H]1C(=O)O`, the “% Inhibition” value worked out at 6% and the Z score is listed as -1.08.
For `O=C1c2cc[nH]c2CC[C@@H]1N1CCN(C(c2ccccc2)c2ccccc2)CC1` the same measures were -6% and 0.74.
Take `COCC(=O)Nc1cc(C(=O)NCc2ccc(C)cc2)c2c(c1)ncn2Cc1ccc(F)cc1`: the “% Inhibition” value was -4% and the Z score was 0.41.
The corresponding values for `COc1cc(C(=O)NC(C)(C)C#N)on1` are -7% and 1.21.
The corresponding values for `COc1ccc(Cl)cc1Cc1noc(C2(C#N)CCCC2)n1` are -14% and 2.19.

These data come from ChEMBL document CHEMBL4888484, “Replenishing the malaria drug discovery pipeline: Screening and hit evaluation of the MMV Hit Generation Library 1 (HGL1) against asexual blood stage Plasmodium falciparum ,using a nano luciferase reporter read-out” (2022).
